In all, about 300,000 compounds went through this assay and about 1,200 (0.4%) were called active. This list was built around the results that the source calls inconclusive (neither active nor inactive); the mix of calls is not that of the screen. Calls follow the shape of the dose curve; as a rule, active = well fitted inhibition curve with a large enough effect; inconclusive = small, poorly fitted or top-dose-only effect, or another doubt; inactive = no such curve, though single readings can be large or run the other way. Potencies beside an inconclusive call are fits to weak or partial responses and may not hold up.
Each compound was assayed against Lysosomal alpha-glucosidase (Homo sapiens) (UniProt P10253) (assay: qHTS Assay for Inhibitors and Activators of Human alpha-Glucosidase Cleavage of Glycogen). Details: recombinant GAA, glycogen substrate, Amplex Red glucose oxidase fluorescence; activity change, negative = inhibition: at 76.4 µM (top of the series) unless noted.
In short: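 Natural-substrate format: glycogen cleavage by 4 nM human enzyme, glucose read by Amplex Red coupling (Ex 573, Em 610 nm). Normalized to enzyme and no-enzyme controls.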
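For activity change, negative = inhibition in this document: 0% = full enzyme reaction and -100% = no-enzyme basal signal.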
Potency is read from the fitted curve at half-maximal effect.

SMILES	Potency	activity change, negative = inhibition
Cc1ccc(-c2[nH]c3cc(C(=O)NCCCn4ccnc4)ccc3c(=O)c2O)cc1	inconclusive: 25.1 µM [inhibitor, partial curve]	–
NC(=O)c1ccc(N2CCN(c3ccc(O)cc3)CC2)c([N+](=O)[O-])c1	active: 5.01 µM	–
Cc1nc(NS(=O)(=O)c2ccccc2)sc1NC(=O)Nc1ccc(Cl)cc1	inconclusive: 28.2 µM [inhibitor, partial curve]	–
FC(F)(F)c1ccc2c(c1)NCC1CCCN21 (stereo unspecified)	active: 6.31 µM	–
O=C(O)c1ccc(O)c(O)c1	active: 5.01 µM	–
O=C(NC(=S)Nc1cccc2cc(O)ccc12)c1ccccc1Br	inconclusive: 35.5 µM [inhibitor, partial curve]	–
Cc1nc2ccccn2c1C(=O)NNC(=S)Nc1ccccc1	inconclusive: 7.94 µM [inhibitor, full curve, poor fit]	–
Cc1cc(C(=O)NNc2c(Cl)cccc2Cl)no1	inconclusive: 50.1 µM [inhibitor, single point]	–
CCNC(=S)NNC(=O)CSc1nc2ccccc2[nH]1	inconclusive: 3.14 µM [inhibitor, single point]	–
Cc1cc(C)nc(N/N=C/c2sccc2C)n1	–	inactive: -19.8%
Nc1nc(Nc2ccccc2F)sc1C(=O)c1ccc(Cl)cc1	–	inactive: 8.06% [at 76.3 µM]
Clc1ccc(/C(Cc2nc3ccccc3[nH]2)=N\Nc2ccccc2)cc1	inconclusive: 17.8 µM [inhibitor, partial curve]	–
Cc1ccc(Nc2nc(-c3cccs3)cs2)nc1	inconclusive: 31.6 µM [inhibitor, partial curve]	–
CC1(C)Cc2c(cnn2-c2ccc(F)cc2)C(NC(=O)CCc2ccncc2)C1 (stereo unspecified)	active: 28.2 µM	–
CCOc1ccc(N2C(=O)Cc3ccccc3C2=O)cc1	inconclusive: 39.8 µM [inhibitor, single point]	–
Cc1cc(NO)nc(-c2ccc(Br)cc2)n1	inconclusive: 28.2 µM [inhibitor, partial curve]	–
Cc1cc(/C=N/NC(N)=S)c(O)c(/C=N/NC(N)=S)c1	inconclusive: 39.8 µM [inhibitor, single point]	–
O=C(Nc1ccc(N2CCCC2=O)cc1)c1cccc(F)c1	–	inactive: -12.6%
CCOc1ccc(N2C(=O)C3Sc4[nH]c(=O)sc4C(/C=C/c4ccccc4)C3C2=O)cc1 (stereo unspecified)	inconclusive: 35.5 µM [inhibitor, single point]	–
Cc1c(NC(C)c2cc(Cl)ccc2O)c(=O)n(-c2ccccc2)n1C (stereo unspecified)	active: 11.2 µM	–
Cc1ccsc1/C=N/Nc1cccc(C(=O)O)c1	inconclusive: 28.2 µM [inhibitor, single point]	–
CC(C)NCC(O)Cn1c2c(c3ccccc31)CCc1c-2cnn1-c1ccccc1 (stereo unspecified)	active: 31.4 µM	–
Cc1ccc(Nc2c(-c3ccco3)nc3nc(C)cc(C)n23)cc1	inconclusive: 6.31 µM [inhibitor, partial curve]	–
Cc1ccc(C(=O)NC(=S)NNC(=O)c2ccccc2[N+](=O)[O-])cc1	inconclusive: 31.6 µM [inhibitor, single point]	–

SMILES	Potency	activity change, negative = inhibition
N/C(COc1ccc(Cl)cc1Cl)=N\NS(=O)(=O)c1ccccc1	inconclusive: 17.8 µM [inhibitor, partial curve]	–
COc1ccc(-c2nnc(C3CCN(C(=O)c4ccccc4F)CC3)o2)cc1	–	inactive: 13.4% [at 76.3 µM]
CSc1ccc(/C=N/Nc2ccc(Cl)c(C(=O)O)c2)cc1	inconclusive: 17.6 µM [inhibitor, single point]	–
CCOC(=O)Cn1cnc2c(nnn2-c2ccc(F)cc2)c1=O	active: 50.1 µM	–
COc1cccc2c1CCc1c-2nc2ccccc2c1C(=O)O	–	inactive: 1.46%
CN(C)c1ccc(N2C(=O)CC(Nc3ccc(N4CCOCC4)cc3)C2=O)cc1 (stereo unspecified)	inconclusive: 50.1 µM [inhibitor, single point]	–
CCC/C(O)=C1\C(=O)CCCC1=NCCc1c(C)[nH]c2ccc(OC)cc12	inconclusive: 50.1 µM [inhibitor, single point]	–
O=C1CCCC2=C1C(c1ccc(Cl)cc1)C1C(=O)c3ccccc3C1=N2 (stereo unspecified)	inconclusive: 39.8 µM [inhibitor, partial curve, poor fit]	–
O=C(NNC(=S)Nc1ccccc1)c1cccc(S(=O)(=O)N2CCOCC2)c1	inconclusive: 44.7 µM [inhibitor, partial curve]	–
Cc1cc(C)c(S(=O)(=O)N2CCC(C(=O)NCc3ccc(Cl)cc3Cl)CC2)c(C)c1	inconclusive: 4.43 µM [inhibitor, single point]	–
Cc1cccc(NC(=S)Nc2ccc(Cl)c(Cl)c2)c1	inconclusive: 31.6 µM [inhibitor, partial curve]	–
C/C(=N\Nc1cccc(C(=O)O)c1)c1ccc2c(c1)Nc1ccccc1S2	inconclusive: 28.2 µM [inhibitor, single point]	–
Cc1nc(N2CCOCC2)sc1C(=O)NN	inconclusive: 28.2 µM [inhibitor, partial curve]	–
COc1ccc2[nH]c(=O)c(CNc3ccc(C)c(C)c3)cc2c1	inconclusive: 14 µM [activator, partial curve]	–
CCN(CC)CCNC(=O)Cn1nc(Cc2cccnc2)c2ccccc2c1=O	inconclusive: 112 µM [inhibitor, partial curve, poor fit]	–
COc1ccccc1NS(=O)(=O)c1cccc(C(=O)N/N=C2\CC(=O)CC(C)(C)C2)c1	–	inactive: 4.32%
CSc1ccc(-c2nc3ccc(C)cn3c2Nc2ccccc2C)cc1	inconclusive: 10 µM [inhibitor, partial curve, poor fit]	–
Cc1c(N/C=C/C(=O)C(F)(F)F)c(=O)n(-c2ccccc2)n1C	inconclusive: 14.1 µM [inhibitor, partial curve]	–
CCn1c(=O)cc(SCC(=O)NCCc2ccc(Cl)cc2)c2ccccc21	–	inactive: 15.7% [at 76.3 µM]
CCOc1ccc(N/C=C/C(=O)c2cc(OC)c(OC)c(OC)c2)cc1	–	inactive: -23.1% [at 76.3 µM]
S=C1Cc2ccccc2C(c2ccc(Cl)cc2)N1 (stereo unspecified)	inconclusive: 3.55 µM [inhibitor, partial curve]	–
O=C(O)c1ccccc1-c1ccccc1C(=O)NNc1ccccc1	inconclusive: 7.03 µM [inhibitor, single point]	–
S=c1cnc2ccccc2[nH]1	inconclusive: 35.5 µM [inhibitor, partial curve]	–
CSc1nc(NCCCO)c2c3c(sc2n1)CN(C)CC3	inconclusive: 20 µM [activator, single point]	–

SMILES	Potency	activity change, negative = inhibition
Cc1[nH]n(-c2ccccc2)c(=O)c1/C=N/N(c1ccccc1)c1ccccc1	inconclusive: 12.5 µM [inhibitor, partial curve]	–
CCCCNC(=O)c1ccc(-n2c(=S)[nH]c3ccccc3c2=O)cc1	inconclusive: 15.8 µM [activator, partial curve]	–
NS(=O)(=O)c1ccc(N2C(=O)C3CC=CCC3C2=O)cc1 (stereo unspecified)	–	inconclusive: 32% [activator]
O=C(N/N=C/c1c[nH]c2ccccc12)c1ccc(O)c(O)c1	inconclusive: 11.2 µM [inhibitor, single point]	–
CSc1ccccc1NC(=O)c1ccccc1N(C)S(C)(=O)=O	–	inconclusive: 33.6% [activator]
Cc1nc2ccccc2c2c(N)c3ccccc3n12	inconclusive: 15.8 µM [inhibitor, partial curve]	–
O=C1C(NS(=O)(=O)c2ccccc2)=C(N2CCN(c3ccc(F)cc3)CC2)C(=O)c2ccccc21	inconclusive: 17.8 µM [inhibitor, partial curve]	–
CCOc1cccc(CNc2ccc(O)cc2)c1OCc1ccc(Cl)cc1Cl	inconclusive: 39.8 µM [activator, single point]	–
CNC(=S)NNc1ccccc1[N+](=O)[O-]	inconclusive: 3.14 µM [inhibitor, full curve]	–
COC(=O)Cc1[nH]n(-c2nc3ccccc3s2)c(=O)c1C(C)=Nc1ccc(OC)cc1	inconclusive: 20 µM [inhibitor, partial curve]	–
CCc1cccc(NC(=O)CSCc2cc(=O)[nH][nH]2)c1	inconclusive: 24.9 µM [inhibitor, partial curve]	–
CCOC(=O)c1ccc(NC(=S)NNC(C)(C)C)cc1	–	inactive: -27.7%
CC1CCCC(NC(=O)CC2Nc3ccccc3NC2=O)C1C (stereo unspecified)	inconclusive: 39.8 µM [activator, single point]	–
CC(C)COc1ccc(C(=O)N(Cc2ccc(N(C)C)cc2)Cc2ccco2)cc1	–	inactive: -18% [at 76.3 µM]
O=[N+]([O-])c1ccc(N/N=C/c2c[nH]c3ccccc23)c(S(=O)(=O)Nc2ccc(Cl)cc2)c1	inconclusive: 24.9 µM [inhibitor, partial curve]	–
N#C/C(=C\c1coc2ccc(O)cc2c1=O)C(=O)Nc1nc2ccccc2s1	inconclusive: 5.01 µM [inhibitor, full curve]	–
O=C(CCN1CCN(c2ccccc2)CC1)NNC(=S)Nc1ccccc1Cl	inconclusive: 8.84 µM [inhibitor, full curve, poor fit]	–
C/C(CC(=O)Nc1cc(Cl)ccc1Cl)=N\NC(N)=S	active: 9.92 µM	–
COc1ccc(-c2cn(-c3ccc(C)cc3C)c(=S)[nH]2)cc1OC	inconclusive: 3.55 µM [inhibitor, partial curve]	–
Brc1ccc(-c2cn3nc4c(nc3n2)CCCC4)cc1	–	inactive: -0.121%
COCCNC(=S)Nc1cc(OC)c(NC(=O)c2ccco2)cc1OC	–	inactive: 21.8%
O=C1N=NC(=O)N1c1ccccc1	inconclusive: 28.2 µM [inhibitor, single point]	–
CC(=O)Oc1ccc(C(=O)[C@H]2[C@H]3C(=O)N(c4ccccc4)C(=O)[C@H]3[C@@H]3C=CC=NN32)cc1	–	inactive: -12.6%
